# PubChem BioAssay AID1479 (National Center for Advancing Translational Sciences (NCATS), 2009)
# Values joined by “and” are separate entries in the source; they are usually repeats but may differ in a detail not shown here. Identical values can stand only once. Out of some 280,000 compounds screened, about 820 (0.29%) were called active. The shares of active, inactive and inconclusive entries below differ from those in the screen. Calls come from the whole dose curve; as a rule, active = well fitted curve in either direction with a large enough effect; inconclusive = small, poorly fitted or top-dose-only effect; inactive = flat fitted curve, though single readings scatter. Potencies beside an inconclusive call are fits to weak or partial responses and may not hold up.
# Assay: Total Fluorescence Counterscreen for Inhibitors of the Interaction of Thyroid Hormone Receptor and Steroid Receptor Coregulator 2
# Settings: TRb/SRC2 Texas Red total fluorescence interference; series mostly up to 106 µM; fluorescence change, negative = quenching: at the top concentration
# Method in brief: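 Flags fluorescent or light-absorbing compounds by total fluorescence, S + 2P, at 555 nm excitation and 632 nm emission. Mixture: 20 nM Texas Red SRC2 peptide, 0.6 uM human TRb LBD, 1 uM T3, 5% DMSO; compound exposure 5 h at ambient temperature.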
# % is set by controls: 0 for no effect and ±100 for the full control effect; potency is the fitted concentration of half-maximal effect; tags give direction and shape of the fitted curve or compound fluorescence and quenching.
Structure (SMILES),Potency,"fluorescence change, negative = quenching"
O[C@@H]1[C@@H]2O[P@@](O)(=S)OC[C@H]2O[C@H]1n1cnc2cc(Cl)c(Cl)cc21,"inconclusive: 794 µM [falling, partial curve, poor fit]",–
CCCCC/C=C\C/C=C\C/C=C\C/C=C\CCCC(=O)N[C@H](C)CO,inactive,–
O=C1NC(=O)N(c2ccc3c(c2)OCO3)C(=O)/C1=C\c1ccc(-c2ccccc2C(=O)O)o1,–,inactive: -0.322%
COc1ccc2[nH]c3c(c2c1)CCNC3,"inconclusive: 0.0014 µM [falling, full curve, poor fit]",–
CCOc1ccc(NC(=O)CN(c2ccc(Cl)cc2C)S(=O)(=O)c2ccccc2)cc1,"inconclusive: 11.2 µM [quencher, full curve]",–
O=c1c2ccccc2[se]n1-c1ccccc1,inactive,–
C=C1C(O)(c2ccccc2)C2CC[N+]1(C)CC2 (stereo not given),–,inactive: -0.707%
CC[N+](C)(CC)CCC[n+]1c(-c2ccccc2)c2cc(N)ccc2c2ccc(N)cc21,"inconclusive: 17.8 µM [fluorescent, partial curve] and inconclusive: 50.1 µM [fluorescent, partial curve]",–
COc1ccccc1N=c1scc(-c2ccc(S(=O)(=O)N3CCCC3)cc2)n1C,"inconclusive: 0.0025 µM [falling, full curve, poor fit]",–
CCOC(=O)c1ccc(Nc2nc(C)cc(C)n2)cc1,"inconclusive: 0.355 µM [falling, full curve, poor fit]",–
NC(CCCCCP(=O)(O)O)C(=O)O (stereo not given),"inconclusive: 398 µM [falling, partial curve, poor fit]",–
CN1C(=O)C(=Cc2ccc(N(C)C)c([N+](=O)[O-])c2)C(=O)N(C)C1=O,–,inactive: 1.7%
Cc1ccccc1Cn1cnc2c(oc3ccccc32)c1=O,"inconclusive: 158 µM [falling, partial curve, poor fit]",–
O=C1NC(=S)N(Cc2ccco2)C(=O)/C1=C\c1cccs1,"inconclusive: 17.8 µM [quencher, full curve]",–
CC[C@@H](CO)NC(=O)[C@@H]1C=C2c3cccc4c3c(cn4C)C[C@H]2N(C)C1,"inconclusive: 70.8 µM [rising, single point]",–
COc1ccccc1N1C(=O)NC(=O)/C(=C/c2ccc([N+](=O)[O-])s2)C1=O,–,inactive: -5.63%
NS(=O)(=O)c1ccc(N=Nc2c(O)[nH]c(=S)[nH]c2=O)cc1,–,inactive: -24.2%
CCN1C(=O)C(=C/C=C/c2ccco2)C(=O)N(CC)C1=S,active: 28.2 µM [fluorescent],–
CN(C)[C@H]1C(=O)C(C(N)=O)=C(O)[C@]2(O)C(=O)C3=C(O)c4c(O)cccc4[C@@](C)(O)[C@H]3C[C@@H]12,–,inactive: 0.0581% [at 53 µM]
CCOc1ccc(C(NC(=O)c2cc(OC)c(OC)c(OC)c2)c2cc(Cl)c3cccnc3c2O)cc1 (stereo not given),"inconclusive: 0.355 µM [falling, full curve, poor fit]",–

Structure (SMILES),Potency,"fluorescence change, negative = quenching"
CC(C)C[C@H](NC(=O)[C@H](Cc1ccccc1)NC(=O)CNC(=O)CNC(=O)[C@@H](N)Cc1ccc(O)cc1)C(=O)N[C@@H](CCCN=C(N)N)C(=O)N[C@@H](CCCN=C(N)N)C(=O)N[C@@H](CCC(N)=O)C(=O)N[C@@H](Cc1ccccc1)C(=O)N[C@@H](CCCCN)C(=O)N[C@H](C(=O)N[C@H](C(=O)N[C@H](C(=O)O)[C@@H](C)O)C(C)C)C(C)C,"inconclusive: 126 µM [quencher, partial curve]",–
CN1CCc2nc(SCc3ccccc3Br)c(C#N)cc2C1,–,inactive: 0.381%
CCn1c(O)c(/C=N/NC(=O)c2ccncc2)c(=O)n(CC)c1=S,"inconclusive: 35.5 µM [falling, partial curve, poor fit]",–
CCCCCn1c(NC(=O)c2ccco2)c(C(=O)OCC)c2nc3ccccc3nc21,–,inactive: -0.181%
CC[C@@]1(O)CC(O)c2c(cc3c(c2O)C(=O)c2c(O)ccc(O)c2C3=O)C1C(=O)OC (stereo not given in full),"inconclusive: 17.8 µM [fluorescent, partial curve]",–
O=C(CNC(=O)c1ccccc1Cl)Nc1ccc(Br)cc1C(=O)c1ccccc1,inconclusive: 0.0006 µM,–
COc1cccc(-n2c(/C=C/c3cccc(C)c3)nc3ccccc3c2=O)c1,"inconclusive: 501 µM [quencher, partial curve]",–
CC(C)(C)OC(=O)N1CCC(c2c(C(=O)N3CCN(Cc4ccccc4)CC3)cnn2-c2ccc(Cl)cc2)CC1,"inconclusive: 89.1 µM [quencher, partial curve]",–
COC[C@H]1OC(=O)c2coc3c2[C@@]1(C)C1=C(C3=O)C2CCC(=O)[C@@]2(C)C[C@H]1OC(C)=O (stereo not given in full),active: 44.7 µM [fluorescent],–
CN1c2ccc([N+](=O)[O-])cc2CC2(C(=O)NC(=O)N(c3ccccc3)C2=O)C1c1ccccc1 (stereo not given),–,inactive: -0.862%
CN(C(=O)CSc1nc2ccc(NC(=O)COc3ccccc3)cc2s1)c1ccccc1,"inconclusive: 0.0028 µM [falling, full curve, poor fit]",–
COc1nn(C(=O)NS(=O)(=O)c2ccccc2OC(F)(F)F)c(=O)n1C,–,inactive: -0.7% [at 201 µM]
CN1/C(=C\C=Nc2ccccc2)C(C)(C)c2ccccc21,"inconclusive: 50.1 µM [fluorescent, partial curve]",–
Cc1ccc2scc(N3CCN(C)CC3)c(=O)c2c1,"inconclusive: 398 µM [falling, partial curve, poor fit]",–
Cc1cc(C(C#N)c2ccc(Cl)cc2)c(Cl)cc1NC(=O)c1cc(I)cc(I)c1O (stereo not given),active: 44.7 µM [quencher],–
CC(=O)c1ccc(NC(=O)c2sc3nc4c(cc3c2N)N2CCC4CC2)cc1,"inconclusive: 11.2 µM [falling, full curve, poor fit]",–
Cc1cccc(CN2C(=O)CN=C(c3ccccc3Cl)c3cc(Cl)ccc32)c1,–,inactive: -9.98%
CCCCC/C=C\C/C=C\C/C=C\C/C=C\CCCC(=O)OCCN,"inconclusive: 70.8 µM [quencher, partial curve]",–
c1cncc([C@@H]2CCCCN2)c1,inactive,–
CCN(CC)c1ccc(CC2C(=O)N(C)C(=O)N(C)C2=O)cc1,"inconclusive: 44.7 µM [fluorescent, partial curve]",–
